According to PubChem BioAssay AID463173 (ICCB-Longwood Screening Facility, Harvard Medical School, 2010):
In all, about 52,000 compounds went through this assay and about 1,700 (3.3%) were called active. Rule as the data show it: active = survival mostly below about 52% (no sharp cut-off); inactive = mostly above about 56%. The list shows a part of the results.

These compounds were tested on Wild type (assay: S. aureus survival, RN4220 and DeltatarO strains – OD600, teichoic acid synthesis inhibitors, primary screen (AID 463173)). Conditions: S. aureus RN4220 wild type/DeltatarO growth, OD600, 18 h, hits give low values, screened at 18.75 µg/mL (by protocol).

| SMILES | survival |
| --- | --- |
| COc1cc(Cl)c(C)cc1NC(=O)Cn1ncc2c3ccccc3n(Cc3ccccc3)c2c1=O | inactive: 86% |
| CCc1ccc(CNC(=O)c2c(C)oc3ncn(CC(C)C)c(=O)c23)cc1 | inactive: 79% |
| COc1ccc(C(=O)N2c3ccc(C)cc3C(C)(c3ccccc3)CC2(C)C)cc1 (stereo unspecified) | inactive: 45% |
| Cn1c(=O)[nH]c(=O)c2c1nc(CN1CCN(c3cccc(Cl)c3)CC1)n2Cc1ccccc1 | inactive: 110% |
| O=C(NCCCc1nc2ccccc2n1Cc1ccc(Cl)cc1Cl)c1ccco1 | inactive: 67% |
| CCN(CC)CCCNC(=O)CN1N=C(c2ccc(OC)cc2)CCC1=O | inactive: 119% |
| COc1ccc(CNC(=O)CCCn2c(=O)c3cccn3c3cccnc32)cc1 | inactive: 115% |
| COc1ccccc1CN1CCC(CNC(=O)c2cnn(-c3ccc(Cl)cc3)c2C2CCN(C(=O)OC(C)(C)C)CC2)CC1 | inactive: 132% |
| CCCCc1nc2ccccc2c(C(=O)O)c1C | inactive: 106% |
| CC(C)c1ccc(OCC(O)CN2CCN(c3ccc(F)cc3)CC2)cc1 (stereo unspecified) | inactive: 73% |
| CCOC(=O)c1c(-c2ccccc2)oc2cc(Br)c(OCC(N)=O)cc12 | inactive: 107% |
| O=S(=O)(c1cccc(F)c1)N1CCC(Oc2ccc(-n3cnnn3)cc2)CC1 | inactive: 84% |
| CCOCCCNC(=O)c1c(NC(=O)Cc2coc3ccc(C)cc23)sc2c1CCC2 | inactive: 109% |
| CCc1ccc(S(=O)(=O)c2c(C(=O)c3ccccc3)cnc3ccc(CC)cc23)cc1 | inactive: 79% |
| COc1cccc(-c2nnc(SCC(=O)N3c4ccccc4Sc4ccccc43)o2)c1 | active: 11% |
| Cc1ccccc1NC(=O)c1ccc(Cl)c(S(=O)(=O)N2CCCCCC2)c1 | inactive: 122% |
| CCCCNS(=O)(=O)c1ccc2nc(-c3cccnc3)cc(C(=O)NCCOC)c2c1 | inactive: 45% |
| CC(=O)Oc1ccccc1C(=O)N1CCN(c2ccccc2F)CC1 | inactive: 96% |
| COc1ccc(NC(=O)CSc2nccn2Cc2ccco2)c(OC)c1 | inactive: 127% |

| SMILES | survival |
| --- | --- |
| CCC1CCCCN1C(=O)Cn1c(=O)cc(C(F)(F)F)c2c(C)nn(C)c21 (stereo unspecified) | inactive: 68% |
| COc1ccc(OC)c(NC(=O)Cc2c(C(=O)O)n(C)c3ccc(C)cc23)c1 | inactive: 88% |
| O=C1c2[nH]nc(-c3ccccc3O)c2C(c2ccc(F)cc2)N1CCO (stereo unspecified) | inactive: 81% |
| Cc1cc(=O)[nH]c2c1c(=O)[nH]n2C1CC(C)N(C)CC1C (stereo unspecified) | inactive: 104% |
| COC(=O)c1cnn(-c2ccc(C(=O)Nc3cc(OC)c(OC)c(OC)c3)cc2)c1N | inactive: 90% |
| COc1ccc(-c2nc(SCC(=O)N3CCCCC3C)n[nH]2)cc1 (stereo unspecified) | inactive: 134% |
| CCOC(=O)c1cc(-c2ccc(OC)cc2)n(CCC(=O)Nc2nc3ccc(OCC)cc3s2)c1C | inactive: 79% |
| CCOC(=O)c1c(C)sc(-c2c(-c3ccc(OC)c(F)c3)[nH]c3[nH]c(=O)[nH]c(=O)c23)c1O | inactive: 111% |
| CC1=C(C(=O)Nc2ccc(Cl)cc2)C(c2ccc(C(F)(F)F)cc2)n2nnnc2N1 (stereo unspecified) | inactive: 68% |
| CCc1cccc(C)c1Nc1c(-c2cccc(O)c2)nc2nc(C)cc(C)n12 | inactive: 70% |
| CCc1ccc(-n2c(=O)c3c(C)c(C(=O)N(C)C)sc3n(Cc3ccccc3C#N)c2=O)cc1 | inactive: 82% |
| Cc1ccc(CN(Cc2ccco2)C(=O)c2ccc(Cl)cc2)o1 | inactive: 109% |
| CC(NC(=O)c1ccco1)c1ccccc1 (stereo unspecified) | inactive: 112% |
| Cc1cccc(NC(=O)CSc2nc3ccc(NC(=O)COc4ccccc4F)cc3s2)c1 | inactive: 106% |
| Cc1ccc(NC(=O)C2CCCN2S(=O)(=O)c2ccc3c(c2)CCCC(=O)N3)cc1Cl (stereo unspecified) | inactive: 113% |
| CC(C(=O)N1CCCCC1)N1CCC(N2CCCCC2)CC1 (stereo unspecified) | inactive: 93% |
| COc1ccc(NC(=O)c2c(NC(=O)Cc3ccccc3)sc3c2CCCC3)cc1 | inactive: 126% |
| O=C(CSc1ccc2nc(-c3ccccc3)cn2n1)Nc1cccc(F)c1 | inactive: 72% |
| COc1ccc(NC(=O)Cn2c(=O)n(Cc3ccc(C(=O)NCc4ccccc4Cl)cc3)c(=O)c3ccccc32)cc1 | inactive: 73% |

| SMILES | survival |
| --- | --- |
| COc1ccc(Cn2nnc3c(=O)[nH]c(C4CCN(C(=O)c5ccc(C)cc5)CC4)nc32)cc1OC | inactive: 53% |
| Cc1cc(F)ccc1NC(=O)Cn1c(=O)ccc2cc(S(=O)(=O)N3CCC(C)CC3)ccc21 | inactive: 73% |
| CCN(CC)CCCNC(=O)CN1N=C(c2ccccc2)CCC1=O | inactive: 76% |
| Cc1nn(C)c2c1c(C(F)(F)F)cc(=O)n2C(C)C(=O)NCc1ccccc1Cl (stereo unspecified) | inactive: 135% |
| Cc1nn(CC(=O)N2CCN(c3cccc(C(F)(F)F)c3)CC2)c(=O)c2cccn12 | inactive: 95% |
| COC(=O)c1sccc1S(=O)(=O)N(CC(=O)NCc1ccc(F)cc1)c1ccc(Cl)cc1 | inactive: 72% |
| COc1ccc(CNC(=O)c2ccc(CNS(=O)(=O)c3ccc(F)cc3)cc2)cc1 | inactive: 105% |
| Cc1ccc(NC(=O)Cn2nnc(C(=O)NCc3cccs3)c2N)cc1Cl | inactive: 81% |
| Cc1cc(C)c2c(c1)c1n[nH]c(=S)nc1n2C | inactive: 82% |
| Cc1oc(-c2cccc(Cl)c2)nc1Cn1c(SCc2ccccc2F)nc2ccncc21 | inactive: 68% |
| Cc1sc(NC(=O)c2ccccc2F)c(C(=O)O)c1C | inactive: 97% |
| Cc1cc(C)cc(NC(=O)Cn2c(C(F)(F)F)nc3ccccc32)c1 | inactive: 83% |
| CCCCNC(=O)C1CCN(Cc2ccccc2OCC)CC1 | inactive: 118% |
| COc1ccccc1NC(=O)CSC1=Nc2ccccc2C2=NC(CC(=O)NCc3cccs3)C(=O)N12 (stereo unspecified) | inactive: 92% |
| COc1ccc(CCNC(=O)c2ccc3c(c2)N(Cc2ccccc2C)C(=O)c2ccccc2S3)cc1OC | inactive: 128% |
| Cc1ccccc1NC(=O)CSc1nnc(-c2cccs2)o1 | inactive: 91% |
| CCc1ccc2oc(-c3cc(NC(=O)c4cc([N+](=O)[O-])ccc4N4CCOCC4)ccc3Cl)nc2c1 | inactive: 74% |
| Cc1ccc(Cl)cc1N1CCN(C(=O)c2cc3c(-c4ccccc4F)nn(C)c3s2)CC1 | inactive: 64% |
